Measured values taken from article PMC6919601, “Identification of Plasmodium dipeptidyl aminopeptidase allosteric inhibitors by high throughput screening” (PLoS ONE, 2019).
Out of some 110,000 compounds screened, about 230 (0.21%) showed an effect of 50% or more. This is one part of the list.

Target: DPAP1 (Plasmodium falciparum, UniProt Q8IIJ9)
Assay: primary screen, percent inhibition; read by cleavage of a fluorogenic dipeptide substrate; higher = more effect of the substance
Design: species or system P. falciparum D10 trophozoite lysates; single well
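Note: 30 min substrate incubation versus DMSO and 10 µM JCP410 controls.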

Sequence of DPAP1 (Q8IIJ9 whole entry, looked up): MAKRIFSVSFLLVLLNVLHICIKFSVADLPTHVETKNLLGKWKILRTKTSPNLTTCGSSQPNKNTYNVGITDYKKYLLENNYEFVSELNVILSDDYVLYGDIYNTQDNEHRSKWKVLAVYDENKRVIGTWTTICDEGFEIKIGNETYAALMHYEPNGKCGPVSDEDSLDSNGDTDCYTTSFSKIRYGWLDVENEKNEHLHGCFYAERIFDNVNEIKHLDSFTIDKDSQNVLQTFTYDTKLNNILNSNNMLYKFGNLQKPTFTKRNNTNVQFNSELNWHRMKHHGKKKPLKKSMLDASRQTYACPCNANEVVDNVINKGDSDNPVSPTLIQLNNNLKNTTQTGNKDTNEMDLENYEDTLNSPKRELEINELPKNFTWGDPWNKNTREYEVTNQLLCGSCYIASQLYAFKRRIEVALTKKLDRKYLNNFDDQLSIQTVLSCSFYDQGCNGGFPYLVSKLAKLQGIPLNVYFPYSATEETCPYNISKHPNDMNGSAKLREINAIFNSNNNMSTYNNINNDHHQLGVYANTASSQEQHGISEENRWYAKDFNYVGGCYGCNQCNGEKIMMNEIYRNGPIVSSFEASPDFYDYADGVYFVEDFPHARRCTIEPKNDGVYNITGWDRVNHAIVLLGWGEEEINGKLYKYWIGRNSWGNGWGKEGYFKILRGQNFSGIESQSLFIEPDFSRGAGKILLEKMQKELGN

Row | SMILES | % Inhibition @ 10 uM [%]
1 | COc1ccc(OC)c(CN2CCN(Cc3ccc(OC)c(OC)c3)CC2)c1 | -3.37
2 | Cc1n[nH]c(C)c1CCCCCCOc1cccc(Cl)c1 | 4.9
3 | CC(C)Cc1ccc(C(C)C(=O)NC(C)(C)C)cc1 (stereo not shown) | 1.7
4 | O=C(O)c1ccccc1SCc1cc(=O)n2cc(Br)ccc2n1 | -4.01
5 | CCC(C)(C)c1ccc(OCC(=O)Nc2ccncc2)cc1 | -1.16
6 | COc1ccc(Cn2c(C(=O)O)c(CNCC3CCCO3)c3ccccc32)cc1 (stereo not shown) | -1.67
7 | c1ccc2c(-c3csc(-c4ccncc4)n3)c[nH]c2c1 | -0.305
8 | O=C(O)CCCn1cc(NC(=O)c2sc3ccccc3c2Cl)cn1 | 2.99
9 | O=C(O)C1CCN(C2CC(=O)N(c3cccc4ccccc34)C2=O)CC1 (stereo not shown) | 4.78
10 | CCC1CCC(N2CCN(c3ccc(F)cc3)CC2)CC1 (stereo not shown) | 4.51
11 | CCCN1CCN(CCCNC(=O)c2ccc(-n3c(C)cc4c3CCCC4)cc2)CC1 | -0.878
12 | O=S(=O)(Cc1ccccc1Cl)NC1CCCCC1 | 0.9
13 | Cc1ccc(CSCC(=O)N2CCCCC2)cc1 | -8.6
14 | CC1=C(C(=O)OCC2CCCCC2)C(c2ccccc2F)NC(=O)N1 (stereo not shown) | -4.18
15 | CC(C)(C)c1cc(CN2CCC(O)CC2)cc(C(C)(C)C)c1O | 3
16 | O=C(Cn1ncc2ccsc2c1=O)NCc1ccc(Cl)cc1 | -2.92
17 | CCOc1cc(C(=O)N2CCN(c3ncccn3)CC2)cc(OCC)c1OCC | -2.9
18 | Cc1ccc(-c2cc(C(=O)O)c3cc(Br)ccc3n2)s1 | 1.9
19 | CCC(=O)N1C(=O)NC(C)=C(C(=O)OC)C1c1ccccc1 (stereo not shown) | 1.25
20 | CN(C)c1ncnc(Cl)c1C=O | 5.1
21 | N#Cc1c(N)sc2c1CCC(c1ccccc1)C2 (stereo not shown) | 16.7
22 | CC(=O)NC12CCCC(C(=O)O)(CCC1)C2 | 6.02
23 | O=C(OCc1cccc(COC(=O)c2ccco2)n1)c1ccco1 | -1.76
24 | Cc1cccc(NC(=O)c2cccc(OC(F)F)c2)c1C | 0.163
25 | COc1ccc(C2C3=C(O)CCCC3=Nc3nc(SC)nn32)cc1 (stereo not shown) | 1.73
26 | CCN1CCCC1CNC(=O)c1cc2ccc3cccnc3c2[nH]1 (stereo not shown) | 4.44

Row | SMILES | % Inhibition @ 10 uM [%]
27 | CC(C)(C)c1ccc(S(=O)(=O)c2cnc3ccc(F)cc3c2O)cc1 | -0.0115
28 | CC(C)Oc1ccc(CNC(=O)C2CCCN(S(=O)(=O)N3CCCCC3)C2)cc1 (stereo not shown) | 1.17
29 | COc1cc(NS(=O)(=O)c2ccc(C(C)(C)C)cc2)c(OC)cc1Cl | -3.95
30 | CCOc1ccc(NC(=O)CC2S/C(=N\c3ccccc3C)N(C)C2=O)cc1 (stereo not shown) | -5.67
31 | Fc1ccccc1N1CCN(Cc2ccsc2)CC1 | -6.36
32 | CC(C)CCNc1ncc2c(n1)CC(c1ccccc1Cl)CC2=O (stereo not shown) | 3.87
33 | O=C(O)c1c(CNC2CCCCCC2)c2ccccc2n1Cc1cccc(F)c1 | -4.37
34 | C1CCN(CCNC2CC3CCC2C3)CC1 (stereo not shown) | -1.81
35 | CC(c1ccccc1)N1CCC(=O)C2=C1CCC2 (stereo not shown) | 16.4
36 | COc1ccc(CN2CCN(c3ccc(Cl)cc3)CC2)c(OC)c1 | 0.605
37 | C1=C(c2ccccc2)Nc2nonc2N=C1c1ccccc1 | 6.15
38 | CNc1nc(Nc2ccc([N+](=O)[O-])cc2)nc(OCC(F)(F)F)n1 | 0.968
39 | CCCC1CCC(C2=N/C(=C\c3ccccc3)C(=O)O2)CC1 (stereo not shown) | 2.77
40 | O=C(CN1C(=O)c2ccccc2C1=O)Nc1ccccc1C(=O)N1CCCC1 | 1.49
41 | N#CC1=C(N)OC2=C(CN(Cc3ccccc3)C/C2=C\c2ccsc2)C1c1ccsc1 (stereo not shown) | -1.98
42 | O=C(C1=C(O)C(=O)N(CCN2CCOCC2)C1c1cccc(Br)c1)c1ccco1 (stereo not shown) | 4.42
43 | Cc1ccc(C(=O)/C=C/c2ccc(F)cc2)o1 | -0.128
44 | CC1(C)C=C(c2cc(Br)c(C3=CC(C)(C)NC(C)(C)C3)s2)CC(C)(C)N1 | -5.5
45 | Cc1cc(OCC(=O)O/N=C(\N)c2cccnc2)cc(C)c1Cl | -1.47
46 | CC(C)(C)c1ccc(/C=C/C(=O)NCc2cccnc2)cc1 | -1.33
47 | CCCNC1=C(N2CCCCC2)C(=O)c2ccccc2C1=O | -1.37
48 | C=CCOc1ccccc1CN1CCC(C(=O)OCC)CC1 | -1.78
49 | CCOc1ccc(C(=O)Nc2ccc(N3CCN(C)CC3)cc2)cc1 | -9.24
50 | COc1ccc(-n2nc(C(=O)O)cc2-c2ccccc2)cc1 | -6.95
51 | COC(=O)C1=C(C)N(c2ccc(OC)cc2)C(C)=C(C(=O)OC)C1c1ccc(OC)cc1 | 3.01
52 | COc1cc(OC)c(C2Nc3cccc4cccc(c34)N2)c(OC)c1 | 4.33
